Laboratory results from the supplement of paper PMC8728848.
The list shows a part of the results.

Columns and labels:
Experiment in all cases: glycan array binding signal (z-score within array); higher = stronger binding
Conditions in all cases: glycan notation: IUPAC condensed, linker removed
[1] = biological target: Gal(b1-4)GlcNAc(b1-6)GalNAc
In short: (§1)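 From the Consortium for Functional Glycomics database, 3228 arrays were curated, keeping only those whose protein sequence was available. Binding is given as a within-array Z-score averaged across arrays sharing a protein sequence and across linkers. Negative Z-scores can be read as non-binding.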

[2] = biological target: Gal(b1-4)GlcNAc(b1-6)[Gal(b1-3)]GalNAc
In short: as §1

[3] = biological target: Gal(b1-4)GlcNAc(b1-6)[Gal(b1-4)GlcNAc(b1-3)]GalNAc
In short: as §1

Gal(b1-4)GlcNAc6P = biological target: Gal(b1-4)GlcNAc6P
In short: as §1

Gal(b1-6)Gal = biological target: Gal(b1-6)Gal
In short: as §1

Gal3S(b1-3)GalNAc = biological target: Gal3S(b1-3)GalNAc
In short: as §1

Gal3S(b1-3)GlcNAc = biological target: Gal3S(b1-3)GlcNAc
In short: as §1

[4] = biological target: Gal3S(b1-3)[Fuc(a1-4)]GlcNAc
In short: as §1

Gal3S(b1-4)Glc = biological target: Gal3S(b1-4)Glc
In short: as §1

Gal3S(b1-4)Glc6S = biological target: Gal3S(b1-4)Glc6S
In short: as §1

Gal3S(b1-4)GlcNAc = biological target: Gal3S(b1-4)GlcNAc
In short: as §1

[5] = biological target: Gal3S(b1-4)[Fuc(a1-3)]Glc6S
In short: as §1

[6] = biological target: Gal3S(b1-4)[Fuc(a1-3)]GlcNAc
In short: as §1

[7] = biological target: Gal3S(b1-4)[Fuc(a1-3)]GlcNAc6S
In short: as §1

Gal3S4S(b1-4)GlcNAc = biological target: Gal3S4S(b1-4)GlcNAc
In short: as §1

Gal3S6S(b1-4)GlcNAc = biological target: Gal3S6S(b1-4)GlcNAc
In short: as §1

Gal3S6S(b1-4)GlcNAc6S = biological target: Gal3S6S(b1-4)GlcNAc6S
In short: as §1

Gal4S(b1-4)GlcNAc = biological target: Gal4S(b1-4)GlcNAc
In short: as §1

Gal4S6S(b1-4)GlcNAc = biological target: Gal4S6S(b1-4)GlcNAc
In short: as §1

Gal6P(b1-4)GlcNAc = biological target: Gal6P(b1-4)GlcNAc
In short: as §1

Gal6S(b1-3)GlcNAc = biological target: Gal6S(b1-3)GlcNAc
In short: as §1

Gal6S(b1-3)GlcNAc6S = biological target: Gal6S(b1-3)GlcNAc6S
In short: as §1

Gal6S(b1-4)Glc = biological target: Gal6S(b1-4)Glc
In short: as §1

Gal6S(b1-4)Glc6S = biological target: Gal6S(b1-4)Glc6S
In short: as §1

Gal6S(b1-4)GlcNAc = biological target: Gal6S(b1-4)GlcNAc
In short: as §1

Gal6S(b1-4)GlcNAc6S = biological target: Gal6S(b1-4)GlcNAc6S
In short: as §1

GalNAc(a1-3)Gal = biological target: GalNAc(a1-3)Gal
In short: as §1

GalNAc(a1-3)GalNAc = biological target: GalNAc(a1-3)GalNAc
In short: as §1

[8] = biological target: GalNAc(a1-3)GalNAc(b1-3)Gal(a1-4)Gal(b1-4)Glc
In short: as §1

[9] = biological target: GalNAc(a1-3)GalNAc(b1-3)Gal(a1-4)Gal(b1-4)GlcNAc
In short: as §1

GalNAc(b1-3)Gal = biological target: GalNAc(b1-3)Gal
In short: as §1

[10] = biological target: GalNAc(b1-3)Gal(a1-4)Gal(b1-4)GlcNAc
In short: as §1

[11] = biological target: GalNAc(b1-3)Gal(a1-4)Gal(b1-4)GlcNAc(b1-3)Gal(b1-4)Glc
In short: as §1

[12] = biological target: GalNAc(b1-3)Gal(a1-6)Gal(b1-4)Glc
In short: as §1

GalNAc(b1-3)GalNAc = biological target: GalNAc(b1-3)GalNAc
In short: as §1

GalNAc(b1-3)GlcNAc = biological target: GalNAc(b1-3)GlcNAc
In short: as §1

GalNAc(b1-4)Gal(b1-4)Glc = biological target: GalNAc(b1-4)Gal(b1-4)Glc
In short: as §1

GalNAc(b1-4)GlcNAc = biological target: GalNAc(b1-4)GlcNAc
In short: as §1

B1: PX9937F-bfa-516-16-516 (Bacteroides fragilis) (protein)
chain: LDIDPTSSIADSNYWKTEAQFSTFNVGLHALLRECSFNFFLLGEPRADIYGDVPFGGEATQGMERLPFNTINKENTGISNFAGMYKVINQINLMIAKTKETTVLSEAGKNYYLGEAYGMRAYLYFHLLRSWGDVILYLDYTNGASLDLSNLSKAASPAEEVMKQIKEDITASEKGFGSDYSFKYGRYYWSMAATQMLKGEVYLWSGRQMGGGTADYTTAKTALQSIVSNANVSLQDDFSKVFAYNNKDNSEIIFSIRNAKDEYNMWDDRFRQNLVPQQAYMTSTYCNKEGVSFKDLPEGQLNGLIRLQIRYDLYNKAFRDGDTRKDASMTAVYQKQQDGTVKYIAPFCNKYQGVLLDGASQRSFLNDYPIYRYADCLLLLAEAKALLGEDPTAEINQVRERAYGKEFFEANKATLAYPNDKGDFYTDNKYMSGDEDPLEAILKERMREFMFEGKRWYDLRLLGADYVTKRTSAVATRLLWPINESVLTDNPALKQTPGYQN
B1 was tested, and the “glycan array binding signal (z-score)” value [1] was 0.084, the “glycan array binding signal (z-score)” value [2] was 0.054 and the “glycan array binding signal (z-score)” value [3] was -0.055. The “glycan array binding signal (z-score)” value (Gal(b1-4)GlcNAc6P) was 0.06, the “glycan array binding signal (z-score)” value (Gal(b1-6)Gal) was -0.002 and the “glycan array binding signal (z-score)” value (Gal3S(b1-3)GalNAc) was -0.308. The “glycan array binding signal (z-score)” value (Gal3S(b1-3)GlcNAc) was -0.193, the “glycan array binding signal (z-score)” value [4] was -0.165 and the “glycan array binding signal (z-score)” value (Gal3S(b1-4)Glc) was -0.018. The “glycan array binding signal (z-score)” value (Gal3S(b1-4)Glc6S) was -0.009, the “glycan array binding signal (z-score)” value (Gal3S(b1-4)GlcNAc) was -0.142 and the “glycan array binding signal (z-score)” value [5] was -0.11. The “glycan array binding signal (z-score)” value [6] was 0.269, the “glycan array binding signal (z-score)” value [7] was 0.072 and the “glycan array binding signal (z-score)” value (Gal3S4S(b1-4)GlcNAc) was -0.214. For the same binder, the “glycan array binding signal (z-score)” value (Gal3S6S(b1-4)GlcNAc) was -0.057, the “glycan array binding signal (z-score)” value (Gal3S6S(b1-4)GlcNAc6S) was -0.306 and the “glycan array binding signal (z-score)” value (Gal4S(b1-4)GlcNAc) was -0.429. The “glycan array binding signal (z-score)” value (Gal4S6S(b1-4)GlcNAc) was -0.349, the “glycan array binding signal (z-score)” value (Gal6P(b1-4)GlcNAc) was -0.227 and the “glycan array binding signal (z-score)” value (Gal6S(b1-3)GlcNAc) was 0.274. For the same binder, the “glycan array binding signal (z-score)” value (Gal6S(b1-3)GlcNAc6S) was -0.126, the “glycan array binding signal (z-score)” value (Gal6S(b1-4)Glc) was -0.09 and the “glycan array binding signal (z-score)” value (Gal6S(b1-4)Glc6S) was 0.179. The “glycan array binding signal (z-score)” value (Gal6S(b1-4)GlcNAc) was -0.33, the “glycan array binding signal (z-score)” value (Gal6S(b1-4)GlcNAc6S) was -0.177 and the “glycan array binding signal (z-score)” value (GalNAc(a1-3)Gal) was 0.114. The “glycan array binding signal (z-score)” value (GalNAc(a1-3)GalNAc) was -0.16, the “glycan array binding signal (z-score)” value [8] was 0.469 and the “glycan array binding signal (z-score)” value [9] was -0.212. The “glycan array binding signal (z-score)” value (GalNAc(b1-3)Gal) was -0.015, the “glycan array binding signal (z-score)” value [10] was 1.48 and the “glycan array binding signal (z-score)” value [11] was -0.29. The “glycan array binding signal (z-score)” value [12] was -0.326, the “glycan array binding signal (z-score)” value (GalNAc(b1-3)GalNAc) was -0.374 and the “glycan array binding signal (z-score)” value (GalNAc(b1-3)GlcNAc) was -0.25. The “glycan array binding signal (z-score)” value (GalNAc(b1-4)Gal(b1-4)Glc) was 1.77 and the “glycan array binding signal (z-score)” value (GalNAc(b1-4)GlcNAc) was 0.256.
